# Test results taken from PubChem BioAssay AID743279 (National Center for Advancing Translational Sciences (NCATS), 2014).
# “And” between values parts separate entries of the source, which are not always exact repeats. Identical values can stand only once. The campaign covered roughly 360,000 compounds. About 17,000 (4.7%) were called active. The inconclusive results got no clear call from the source; some entries with a clear call stand among them for comparison. No stated cut-off is given here; in the data, active means activity change below about -50%; inconclusive means mostly about -30% to -49%; inactive means weaker than that.
# Assay: qHTS for Inhibitors of Inflammasome Signaling: IL-1-beta AlphaLISA Primary Screen
# Details: THP-1 LPS/ATP IL-1B secretion, 16 h; at 57.5 µM, active compounds read low
# Summary of the method: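 Secreted IL-1B measured by AlphaLISA bead assay after 16 h compound exposure of THP-1 cells; compounds (final up to 57.5 uM) added 1 h before LPS (250 ng/mL) and ATP (1.25 mM) stimulation; lower signal means less secretion.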
# On the % scale 0 is the no-effect control and ±100 the full control effect.
row,Structure (SMILES),activity change
1,CN1CCN(C(=O)CSc2nc(-c3ccco3)cc(C(F)(F)F)n2)CC1,inactive: -9.8%
2,COc1ccc(C(=O)C2CCCN(C(=O)c3noc4c3CCCC4)C2)c(C)c1 (stereo unspecified),inactive: -23.2%
3,COC(=O)C1=C(C)N(Cc2ccccc2)C(=NCc2ccc(OC)cc2)N[C@H]1c1cccc(F)c1,inconclusive: -33.7%
4,CCCCNC(=S)N(CCN(CC)CC)Cc1cc2cc3c(cc2[nH]c1=O)OCO3,inconclusive: -37.8%
5,COc1ccc(NC(=O)N2CCCC(c3nc(-c4ccc(OC)cc4)no3)C2)cc1 (stereo unspecified),active: -54.4%
6,CC1CCCN(S(=O)(=O)c2ccc(N(C(=O)c3cnccn3)C(C(=O)NC3CCCCC3)c3cccs3)cc2)C1 (stereo unspecified),inconclusive: -32%
7,COc1cccc(NC(=O)CN(C)C(=O)/C=C/c2ccc3ccccc3n2)c1,active: -77.2%
8,COc1ccccc1NC(=O)CSc1nnc(CNC(=O)c2cccs2)o1,active: -77%
9,Cc1ccc(N(Cc2cc3ccccc3[nH]c2=O)C(=O)c2cccs2)cc1,inconclusive: -44.8%
10,Cc1cc(C)cc(Cn2c3ccc(NC(=S)NCc4ccccc4F)cc3c(=O)n2C)c1,inconclusive: -33.4%
11,COc1ccccc1C(CNC(=O)c1ccc(S(=O)(=O)NCc2ccco2)cc1)N(C)C (stereo unspecified),inactive: 8.68%
12,COc1ccc(C2CC(c3cccs3)=NN2c2nc(C)c(C(C)=O)s2)cc1OC (stereo unspecified),inconclusive: -30.1%
13,C[C@H]1CN([C@@H](C)CO)C(=O)CCCn2cc(nn2)CO[C@@H]1CN(C)C(=O)Nc1cccc(F)c1,inactive: 12.4%
14,COc1ccc(/C=C/C(=O)c2cc(F)ccc2OC(=O)c2ccccc2)cc1OC,inconclusive: -36.7%
15,Cc1ccc(Cl)c(NC(=O)CCl)c1Cl,active: -91.2%
16,Cc1cc(N2CCN(C)CC2)nc2ccc(NC(=O)c3ccc4c(c3)OCO4)cc12,active: -54.2%
17,CC1(C(=O)NS(=O)(=O)C2CC2)CCCN(C(=O)Cc2ccc3ccccc3c2)C1 (stereo unspecified),inactive: 24.7%
18,CC1Nc2ncnc(N3CCc4ccccc4C3)c2N(Cc2ccc(Cl)cc2)C1=O (stereo unspecified),inconclusive: -38.6%
19,COc1cc(/C=C/c2ccc3cccc(O)c3n2)cc(Br)c1OC,inconclusive: -49.8%
20,Cc1ccc(S(=O)(=O)N(CC(=O)N2CCN(c3ccccc3F)CC2)C2CCCCC2)cc1,inconclusive: -31.7%
21,Cc1cc(/C=C2\Sc3ccccc3N2C)cc(C)[n+]1CC1CCCO1 (stereo unspecified),active: -101%

row,Structure (SMILES),activity change
1,Cc1cc(NC(=O)c2cc3ccccc3o2)ccc1NC(=O)c1ccccc1,inconclusive: -45.1%
2,COc1ccc(/C=C2\SC(=S)N(CCC(=O)NCCCN3CCOCC3)C2=O)cc1,active: -65.9%
3,O=C(c1cc(COc2ccc(F)cc2Cl)on1)N1CCc2sccc2C1,inconclusive: -48.1%
4,Cc1ccc(NC(=O)c2ccco2)cc1NC(=O)CSc1nnc(-c2cccs2)n1C,inconclusive: -32.3%
5,COc1ccccc1NC(=O)c1coc(=O)c(Br)c1,inconclusive: -34.5%
6,CCOC(=O)c1oc2ccc(S(=O)(=O)Nc3ccc4c(c3)n(C)c(=O)n4C)cc2c1C,inconclusive: -31.8%
7,Cc1cc(C(=O)COC(=O)c2ccc(O)cc2O)c(C)n1-c1ccccc1,active: -80.9%
8,CCOc1ccc(/C=C/C(=O)c2ccccc2)cc1,inconclusive: -38.9%
9,COc1cc(-c2n[nH]c(=S)n2-c2cc(C(F)(F)F)ccc2Cl)cc(OC)c1OC,inactive: 33.2%
10,C[C@H]1CN([C@@H](C)CO)C(=O)c2cc(Br)cnc2O[C@H]1CN(C)C(=O)Cc1ccccn1,inactive: 7.71%
11,CCCNC(=S)Nc1ccc(Nc2ccccc2)cc1,inconclusive: -37.1%
12,Cc1c(C(=O)N(Cc2ccc(F)cc2)C2CCS(=O)(=O)C2)oc2ccccc12 (stereo unspecified),inconclusive: -30.6%
13,O=C1NC[C@H](Cc2ccccc2)N(C[C@H]2CCCN2C[C@H](Cc2ccccc2)N2C[C@H](Cc3ccc(O)cc3)N(CCc3ccccc3)C(=O)C2=O)C1=O,active: -52.4%
14,CCCCN(C)CCCNC(=O)c1cc(Nc2ccc(OC)c(OC)c2)nc2ccccc12,inconclusive: -44%
15,Cc1ccc(-c2cc(C(=O)Nc3cnn(C(C)C)c3)no2)cc1,inconclusive: -45.8%
16,O=C(NCc1ccccc1Cl)c1ccc2c(c1)SC1=NS(=O)(=O)CCN12,inconclusive: -34.4%
17,Cc1ccc(OCCn2c(NC(=O)c3ccco3)nc3ccccc32)cc1,inactive: 5.85%
18,COc1ccc(C(=O)Nc2cc(OC)cc(OC)c2)cc1,inconclusive: -37.7%
19,Cc1no[n+]([O-])c1COc1ccc(/C=C2\NC(=S)NC2=O)cc1,active: -53.4%
20,O=[N+]([O-])c1ccc(CN2[C@H](COCc3ccccc3)[C@@H](N3CCCC3)CS2(=O)=O)cc1,inconclusive: -39%
21,CCOCCCNC(=O)CN1C(=O)/C(=C/c2ccccc2)Sc2ccccc21,inconclusive: -33%

row,Structure (SMILES),activity change
1,COc1ccc(C(=O)CN2C(=O)NC3(CCc4ccccc43)C2=O)cc1 (stereo unspecified),inactive: 5%
2,CCN(CC)Cc1c(CC(C)C)oc(C)c1C(=O)O,inactive: -4.44%
3,C[C@]12C=CC(=O)C=C1CC[C@@H]1C2[C@@H](O)C[C@@]2(C)C1CC[C@]2(O)C(=O)COC(=O)CCC(=O)O (stereo partly specified),inconclusive: -44.8%
4,CN(C)S(=O)(=O)c1ccc(C(=O)OCn2nnc3ccccc3c2=O)cc1,inactive: -9.15%
5,CC[C@]12c3[nH]c4ccccc4c3CCN1C(=O)C(CC(=O)NCC13CC4CC(CC(C4)C1)C3)C[C@@H]2C(=O)N1CCN(C(=O)c2ccco2)CC1 (stereo partly specified),inconclusive: -38%
6,Cc1cc(C)cc(Oc2ncnc3c2ncn3Cc2c(Cl)cccc2Cl)c1,inconclusive: -35.2%
7,Cc1cc(Br)cn2c(Cc3ccsc3)c(-c3ccc(C#N)cc3)nc12,inactive: -10.8%
8,Cn1ccc2c(N3CCCC3)cc3c(c21)C1CCC3O1 (stereo unspecified),inactive: -0.755%
9,Cc1nn2c(COc3ccc(NC(=O)c4ccccc4Cl)cc3)nnc2c2ccccc12,inconclusive: -38.4%
10,CNCc1ccccc1Sc1ccc(OC)cc1,inactive: -21.4%
11,COc1ccccc1-c1ccc(SCc2ccc([N+](=O)[O-])cc2)nn1,inconclusive: -49.7%
12,O=c1ccc2ccc(OCCOc3cccc(Cl)c3)cc2o1,inconclusive: -48.1%
13,CCC(c1nc2ccccc2[nH]1)n1c(=O)c(-c2ccco2)nc2ccccc21 (stereo unspecified),active: -65.5%
14,CN1CCSc2ccc(C(=O)NCc3ccccc3F)cc21,inconclusive: -30.3%
15,O=C(NCCCn1ccnc1)c1cn(-c2ccccc2)nc1-c1ccccc1,inconclusive: -34.7%
16,CC1=Nc2ccccc2/C1=C/c1c(C)[nH]c2ccccc12,active: -71.9%
17,CCN1CCN(Cc2ccc(NC(=O)c3ccc(C)c(NC(=O)c4ccno4)c3)cc2C(F)(F)F)CC1,active: -83.8% and active: -65.1%
18,Cc1ccc(C(=O)OC(C)C(=O)Nc2ccc(Cl)cn2)s1 (stereo unspecified),inactive: -4.65%
19,C[C@H](CO)N1C[C@H](C)[C@@H](CN(C)Cc2ccc(Cl)c(Cl)c2)Oc2c(NS(=O)(=O)c3cccs3)cccc2C1=O,inconclusive: -46%
20,O=[N+]([O-])c1ccc(Oc2ccc(Oc3ccc(C(F)(F)F)cn3)cc2)nc1,inconclusive: -30.8%
21,Cc1[nH]n(-c2ccccc2)c(=O)c1/C=N/N1C(=O)c2cccc3cccc(c23)C1=O,inactive: 82.8%

row,Structure (SMILES),activity change
1,COc1ccc(CCNC(=O)CSc2nc3ccsc3c(=O)n2Cc2ccccn2)cc1OC,inconclusive: -35.1%
2,CC(C)c1nnc(NC(=O)CCC(=O)N2CCC(Cc3ccccc3)CC2)s1,inactive: 19.5%
3,COc1ccc(N2CCN(S(=O)(=O)CCNC(=O)COc3cccc(OC)c3)CC2)cc1,inactive: 26.7%
4,CC(C)CN(C(=O)COC(=O)CCCc1c[nH]c2ccccc12)c1c(N)n(Cc2ccccc2)c(=O)[nH]c1=O,inactive: -21%
5,CCOc1ccc(NC(=O)Nc2ccccc2SC)cc1,inconclusive: -49%
6,COC(=O)[C@]12CCCCC=C1N(Cc1ccc(Cl)cc1Cl)C(=O)[C@H](CC(=O)NCCC(C)C)C2,inconclusive: -40.8%
7,CCCc1cc(=O)oc2cc(C)cc(OC(C)C(=O)NCCN3CCOCC3)c12 (stereo unspecified),inactive: 24.5%
8,Cc1ccc(S(=O)(=O)CNC(=S)c2ccc3ccccc3c2)cc1,inconclusive: -44.4%
9,COc1ccc(-c2noc(CCC(=O)NCc3cc(Br)ccc3OC)n2)cc1,active: -89.6%
10,CCOC(=O)[C@]12CCCC=C1N(CCC1=CCCCC1)C(=O)[C@H](CC(=O)N1CCN(C(=O)C3CC3)CC1)C2,inactive: -21.1%
11,COc1cc(/C=C2\CC/C(=C\c3ccc(OCCO)c(OC)c3)C2=O)ccc1OCCO,active: -76.8%
12,CCN(CC)CCN(C(=O)c1ccc(S(=O)(=O)N2CCCCC2)cc1)c1nc2cc3c(cc2s1)OCO3,inactive: -10.3%
13,CC(=O)N1c2ccc(S(=O)(=O)NCC3CCC(C(=O)Nc4ccc(C)cn4)CC3)cc2CC1C (stereo unspecified),inconclusive: -34.4%
14,CCOC(=O)C1C(=O)C=C(c2ccc(C)cc2)CC1c1ccccc1 (stereo unspecified),inactive: -25.9%
15,CCc1ccc(C(=O)COC(=O)c2cc([N+](=O)[O-])ccc2NCCO)cc1,inconclusive: -41.7%
16,Cc1nnc(Cc2ccco2)c2n[nH]c(C)c12,inactive: -0.688%
17,O=C(COC(=O)c1c(F)cccc1Cl)NC(=O)Nc1ccc2c(c1)OCCO2,inactive: -19.3%
18,O=C(CSCc1nc2ccccc2[nH]1)N1CCN(c2ccc(F)cc2)CC1,inconclusive: -45.7%
